# Assay results taken from the supplement of paper PMC8728848.
# This is one part of the list.
# B1: Flo11 (Saccharomyces cerevisiae), Q1H8S8 (protein)
# chain: MGSSHHHHHHSSGLVPRGSHMFPTALVPRGSSEGTSCNSIVNGCPNLDFNWHMDQQNIMQYTLDVTSVSWVQDNTYQITIHVKGKENIDLKYLWSLKIIGVTGPKGTVQLYGYNENTYLIDNPTDFTATFEVYATQDVNSCQVWMPNFQIQFEYLQGSAAQYASSWQWGTTSFDLSTGCNNYDNQGHSQTDFPGFYWNIDCDNNCGGTKSS
# Tests used:
# Experiment in all cases: glycan array binding signal (z-score within array); higher = stronger binding
# Conditions in all cases: glycan notation: IUPAC condensed, linker removed
# [1] = target: Fuc(a1-2)[GalNAc(a1-3)]Gal(b1-4)GlcNAc
# How it was run: (§1)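 Glycan array data came from 3228 arrays in the Consortium for Functional Glycomics database, and only arrays with an available protein sequence were kept. Glycan names were put into IUPAC-condensed notation, and columns mapping to the same glycan were averaged. The binding signal is a within-array Z-score, averaged across arrays of one protein sequence run at different concentrations or buffers and across linkers. A negative Z-score can be read as non-binding.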
# [2] = target: Fuc(a1-2)[GalNAc(a1-3)]Gal(b1-4)GlcNAc(b1-2)Man(a1-3)[GalNAc(a1-3)[Fuc(a1-2)]Gal(b1-4)GlcNAc(b1-2)Man(a1-6)]Man(b1-4)GlcNAc(b1-4)GlcNAc
# How it was run: as §1
# [3] = target: Fuc(a1-2)[GalNAc(a1-3)]Gal(b1-4)GlcNAc(b1-3)Gal(b1-4)GlcNAc
# How it was run: as §1
# [4] = target: Fuc(a1-2)[GalNAc(a1-3)]Gal(b1-4)GlcNAc(b1-3)Gal(b1-4)GlcNAc(b1-3)Gal(b1-4)GlcNAc
# How it was run: as §1
# [5] = target: Fuc(a1-2)[GalNAc(a1-3)]Gal(b1-4)[Fuc(a1-3)]GlcNAc
# How it was run: as §1
# [6] = target: Fuc(a1-2)[GalNAc(a1-4)]Gal(b1-4)GlcNAc
# How it was run: as §1
# [7] = target: Fuc(a1-2)[GalNAc(b1-3)]Gal
# How it was run: as §1
# [8] = target: Fuc(a1-3)GlcNAc
# How it was run: as §1
# [9] = target: Fuc(a1-3)[Gal(b1-4)]Glc6S
# How it was run: as §1
# [10] = target: Fuc(a1-3)[Gal(b1-4)]GlcNAc
# How it was run: as §1
# [11] = target: Fuc(a1-3)[Gal(b1-4)]GlcNAc(b1-2)Man(a1-3)[Fuc(a1-3)[Gal(b1-4)]GlcNAc(b1-2)Man(a1-6)]Man(b1-4)GlcNAc(b1-4)GlcNAc
# How it was run: as §1
# [12] = target: Fuc(a1-3)[Gal(b1-4)]GlcNAc(b1-2)Man(a1-6)[Gal(b1-4)GlcNAc(b1-2)Man(a1-3)]Man(b1-4)GlcNAc(b1-4)GlcNAc
# How it was run: as §1
# [13] = target: Fuc(a1-3)[Gal(b1-4)]GlcNAc(b1-3)Gal(b1-3)[Fuc(a1-4)]GlcNAc
# How it was run: as §1
# [14] = target: Fuc(a1-3)[Gal(b1-4)]GlcNAc(b1-4)Gal(b1-4)[Fuc(a1-3)]GlcNAc
# How it was run: as §1
# [15] = target: Fuc(a1-3)[Gal(b1-4)]GlcNAc(b1-4)Gal(b1-4)[Fuc(a1-3)]GlcNAc(b1-4)Gal(b1-4)[Fuc(a1-3)]GlcNAc
# How it was run: as §1
# [16] = target: Fuc(a1-3)[Gal(b1-4)]GlcNAc6S
# How it was run: as §1
# [17] = target: Fuc(a1-3)[Gal3S(b1-4)]Glc6S
# How it was run: as §1
# [18] = target: Fuc(a1-3)[Gal3S(b1-4)]GlcNAc
# How it was run: as §1
# [19] = target: Fuc(a1-3)[Gal3S(b1-4)]GlcNAc6S
# How it was run: as §1
# [20] = target: Fuc(a1-3)[GalNAc(b1-4)]GlcNAc
# How it was run: as §1
# [21] = target: Fuc(a1-3)[Neu5Ac(a2-3)]Gal(b1-4)GlcNAc(b1-3)GalNAc
# How it was run: as §1
# [22] = target: Fuc(a1-4)GlcNAc
# How it was run: as §1
# [23] = target: Fuc(b1-3)GlcNAc
# How it was run: as §1
# [24] = target: Gal(a1-2)Gal
# How it was run: as §1
# [25] = target: Gal(a1-3)Gal
# How it was run: as §1
# [26] = target: Gal(a1-3)Gal(b1-3)GlcNAc
# How it was run: as §1
# [27] = target: Gal(a1-3)Gal(b1-4)Glc
# How it was run: as §1
# [28] = target: Gal(a1-3)Gal(b1-4)GlcNAc
# How it was run: as §1
# [29] = target: Gal(a1-3)Gal(b1-4)[Fuc(a1-3)]GlcNAc
# How it was run: as §1
# [30] = target: Gal(a1-3)Gal(b1-4)[Fuc(a1-3)]GlcNAc(b1-2)Man(a1-3)[Gal(a1-3)Gal(b1-4)[Fuc(a1-3)]GlcNAc(b1-2)Man(a1-6)]Man(b1-4)GlcNAc(b1-4)GlcNAc
# How it was run: as §1
# [31] = target: Gal(a1-3)GalNAc
# How it was run: as §1
# [32] = target: Gal(a1-3)[Gal(a1-4)]Gal(b1-4)GlcNAc
# How it was run: as §1
# [33] = target: Gal(a1-4)Gal(b1-4)Glc
# How it was run: as §1
# [34] = target: Gal(a1-4)Gal(b1-4)GlcNAc
# How it was run: as §1
# [35] = target: Gal(a1-4)Gal(b1-4)GlcNAc(b1-3)Gal(b1-4)Glc
# How it was run: as §1
# [36] = target: Gal(a1-4)GlcNAc
# How it was run: as §1
# [37] = target: Gal(a1-6)Glc
# How it was run: as §1
# [38] = target: Gal(b1-2)Gal
# How it was run: as §1
binder,measurement,setting,value
B1,glycan array binding signal (z-score),[1],-0.498
same,glycan array binding signal (z-score),[2],-0.503
same,glycan array binding signal (z-score),[3],-0.487
same,glycan array binding signal (z-score),[4],1.76
same,glycan array binding signal (z-score),[5],0.366
same,glycan array binding signal (z-score),[6],0.905
same,glycan array binding signal (z-score),[7],1.45
same,glycan array binding signal (z-score),[8],-0.5
same,glycan array binding signal (z-score),[9],1.08
same,glycan array binding signal (z-score),[10],-0.478
same,glycan array binding signal (z-score),[11],-0.351
same,glycan array binding signal (z-score),[12],0.357
same,glycan array binding signal (z-score),[13],-0.491
same,glycan array binding signal (z-score),[14],-0.495
same,glycan array binding signal (z-score),[15],-0.388
same,glycan array binding signal (z-score),[16],0.889
same,glycan array binding signal (z-score),[17],1.6
same,glycan array binding signal (z-score),[18],-0.463
same,glycan array binding signal (z-score),[19],1.26
same,glycan array binding signal (z-score),[20],-0.505
same,glycan array binding signal (z-score),[21],3.1
same,glycan array binding signal (z-score),[22],-0.502
same,glycan array binding signal (z-score),[23],-0.5
same,glycan array binding signal (z-score),[24],-0.506
same,glycan array binding signal (z-score),[25],-0.49
same,glycan array binding signal (z-score),[26],-0.5
same,glycan array binding signal (z-score),[27],-0.504
same,glycan array binding signal (z-score),[28],-0.506
same,glycan array binding signal (z-score),[29],-0.499
same,glycan array binding signal (z-score),[30],1.3
same,glycan array binding signal (z-score),[31],-0.49
same,glycan array binding signal (z-score),[32],-0.506
same,glycan array binding signal (z-score),[33],-0.507
same,glycan array binding signal (z-score),[34],-0.506
same,glycan array binding signal (z-score),[35],2.42
same,glycan array binding signal (z-score),[36],-0.503
same,glycan array binding signal (z-score),[37],-0.499
same,glycan array binding signal (z-score),[38],-0.51
